# Test results taken from the supplement of paper PMC10126150.
# Values marked as one replicate rest on one cluster of the flow cell; about a third of the high ones do not repeat.
# Test system: ATP
# Test: switch fluorescence ratio, 500 uM ATP over buffer (Cy3 cluster intensity, sum of 5 cycles each) (fold (ratio)); higher = stronger signal-on switching upon ATP binding; sequences stand for … in TCGTCGGCAGCGTCAGATGTGTATAAGAGACAGTTTTTTTTTTTTTTTTTTTTTTTTT…TC
# Settings: aptamer strand: ATP DNA aptamer (quencher-CACCTGGGGGAGTATTGCGGAGGAAGG + anchor), 100 nM annealed; ATP concentration: 500 uM; one replicate
# In short: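 Between each of five buffer/ATP cycles, the flow-cell was stripped with NaOH and re-annealed. Each cycle imaged Cy3-labelled switching-strand clusters, annealed to 100 nM quencher-labelled ATP aptamer on a modified Illumina MiSeq flow-cell, first in selection buffer and then after 15 min with 500 uM ATP at 22 °C. The fluorescence ratio is summed target-cycle over summed buffer-cycle Cy3 intensity per cluster, averaged per switch-domain sequence, with clusters outside 100-1000 RFU excluded.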
# 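Also: ATP exposure 15 min at 22 °C before imaging.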
row,Sequence,switch fluorescence ratio
1,GGACGGATTC,1.03
2,GCTTCACCTA,1.07
3,GCTCACGGG,1.05
4,GGTCACGACG,0.984
5,TAAGGTGTCA,1.05
6,ACCACGGACA,1.76
7,AGCTGACCTA,1.03
8,CTCCATGCGC,1.8
9,CAGTAGATAC,1.66
10,TTCCTTCAAT,1.15
11,TGGGACTAGA,0.965
12,TTTGTCACTG,1.05
13,GGCCCATGGC,0.993
14,ATTGCAACGC,0.961
15,CGCCCGCCAA,2.32
16,GGTTGAGCAG,0.963
17,CATAGATATA,0.99
18,ATACTCACAT,1.3
19,GGATAGTGAG,0.982
20,GGCGTAGATA,1.04
21,GCCGAGGATA,1.03
22,AATTGTTTCC,1.36
23,ATGTAGATGG,0.996
24,CGTACGAGGC,1.08
25,ATGGCTTCCA,1.05
26,TCAACTAGAG,0.991

row,Sequence,switch fluorescence ratio
1,AGGGTTAAAA,0.98
2,GATGGTTGCA,0.982
3,ACTAGTTGTT,1.01
4,TGTAGGGTCG,0.973
5,TCATGGGGAT,0.991
6,AGAAGATACC,1.07
7,GATTGTATTT,0.987
8,AAGCGACATG,1.02
9,TATTTTGGT,1
10,AACAGACGCT,1.15
11,TTAGTGCGC,1.48
12,CTCGCTGATG,1.03
13,TTTCAAGGTG,1.33
14,GAAACTTAGT,0.995
15,TCACGGGGAA,1
16,TACTTTGAA,0.943
17,ACACAGTTTT,1.03
18,ATGTTTTACT,1.01
19,CACTAGTCC,1.62
20,TTTCCGTAGG,0.976
21,GGAAGGGTAA,1.39
22,ATGGTTTGCG,1.02
23,AGCGCAGTTC,1.55
24,TCCGGGATCG,1.02
25,TGTGTTGGCA,1.02
26,ATAAAAGGGC,0.984

row,Sequence,switch fluorescence ratio
1,CCTGTTGTC,0.955
2,GAGCTTTGAA,0.994
3,AGTTCGCGGG,1.02
4,TTGTGCCTTC,1.04
5,CCCCACCGAT,1.11
6,AGATGCAAAT,1.04
7,GGCAAACTAC,1.37
8,AGCCCGTGTC,1.03
9,CGAAAGGTAA,0.973
10,CTGGACAAG,0.996
11,ATATACTACC,1.27
12,GATGGACAAG,1.04
13,ATGGGTAAAC,1.05
14,GCCGAATTAG,1.01
15,GATCTAAAGT,0.991
16,TGGTGCGATT,0.969
17,GCGCGGACG,1.03
18,CCAGGGACAA,1.1
19,AAGGTGCAAC,0.967
20,GGGCGCGTGT,0.942
21,TCGTATTTG,1
22,ACATAGAGAC,1.02
23,TAATCCCGAC,1.04
24,GTTGTCCGCT,1.06
25,CCTGACCAAG,1.03
26,ATAATAAGCA,0.989

row,Sequence,switch fluorescence ratio
1,ACAGCGACT,1.1
2,CTACGTGGC,1.5
3,TCTGAATGAT,0.979
4,ATCGAACTCG,1.01
5,CATTAATCCT,1.08
6,TGTATTCCTC,1.01
7,ATAGGTTGAA,1.01
8,ATGCCAAGTT,0.953
9,CGGCGTGCCT,0.993
10,ATTTTGCATG,1.05
11,GGATCGCAGG,0.994
12,TATTGTACGC,0.986
13,GCGTCTATCC,0.979
14,CTGGTTTTCT,1.01
15,TCCGAGTGGG,1.05
16,ATGGCTGGTT,0.963
17,CCTCTCTCGT,1.05
18,TTTGACTTAT,1.05
19,GTGGGAACTC,0.972
20,GGACATTTTA,1.02
21,CAGCGTCCCG,1.07
22,CTAAGATAA,1.01
23,CAGTGCGTTG,0.97
24,GTCATAGTCG,0.969
25,ATGTGTAT,1
26,CACGTAAAAG,1.7

row,Sequence,switch fluorescence ratio
1,ATCGTGGAGC,0.993
2,GATGCTAAAA,1.07
3,TCTGTCCATA,1.01
4,TGGGGACTCA,1.05
5,CGTGGTTTCG,1.03
6,TCGGGCGGGA,1.08
7,CTGTGTTACT,1.02
8,GTCACCCATG,1.13
9,GTAATTTCTG,0.974
10,TGCAACAGAT,1.01
11,GAATGCAAAC,2.61
12,GGAACGATGC,1.38
13,CATTTAGAAT,1.01
14,CCTGATGTAT,0.995
15,TCCGGGGGA,3.09
16,CTAATGGG,1.01
17,TTCGTGGGAC,1.03
18,GAAGAACGGA,1.02
19,AGAGGCTAGC,0.899
20,ACAGCGGGAG,1.04
21,TTTGAATGGT,1.01
22,ACCGCCGCAC,1.73
23,TCGGGATACA,1.06
24,ATCATGGACG,0.909
25,GCGTTGTACC,1.02
26,GTGAAAACGG,1.07

row,Sequence,switch fluorescence ratio
1,AGCGCGATTG,1.03
2,CGTTCTCAGT,0.917
3,GAAGGTGGAC,1.03
4,TTTACACCCA,1.11
5,CGAATCAGCT,0.978
6,AGCTAATAAC,1.24
7,AAGGAAAGA,1.03
8,TGATGATCTT,1
9,TCTCTGTTGT,1.02
10,GACCGAGATG,1.55
11,GGCGCCCTTT,0.999
12,TACTGCCGCC,1.32
13,GCAGCTACAA,1.05
14,GTATTAGTCA,0.981
15,CTAGCTTATC,1.19
16,CGGTCTCGGG,0.966
17,TTCATAGAGA,0.979
18,TAAGGAATTT,1.08
19,GAGCGACAAA,0.982
20,CATCTCAGGC,1.16
21,ACGCCATGAC,2.28
22,CTCGTGGGGT,0.991
23,TTCCGCCTCG,1.21
24,ATTACCTTTC,2.23
25,TTGCCGTGAC,1.01
26,AAAGTGTCG,0.987

row,Sequence,switch fluorescence ratio
1,ATGGTAGGAC,0.989
2,CGGATTTTAC,1.03
3,GCCCCTCAA,1.12
4,AGAGGTAATC,1.02
5,TGAGGTTGGA,0.967
6,AGACACATTC,1.05
7,GCGCTCATGG,1.01
8,ATTCAACAAA,0.976
9,TGGCGATGGT,0.981
10,GCTACTATGG,0.973
11,CACTTGTTGG,1.01
12,CGGAGTCTGG,1.02
13,AGAATAGCGA,1
14,CGACGGGCGC,2.11
15,ACAGTCCTCG,1.09
16,GTACCGGAAA,1.09
17,TAAGGGGCCT,1
18,GAGTGGAATC,1.04
19,AGCGCTTCC,1.62
20,CGGCATCAC,2.26
21,ACGTCTCGGC,0.939
22,ATGGGCATTG,0.972
23,AGACAAAGTC,1.03
24,TAGTAGTTGG,0.994
25,AGACACTGCC,1.18
26,AGTATTATCC,1

row,Sequence,switch fluorescence ratio
1,TTGCTGGGCA,0.985
2,TATCCGGGTT,1.02
3,GTCGCCCGTG,1.01
4,TTATAATCAT,0.941
5,ACCCCCAGAA,1.32
6,AAACGGGCTG,0.961
7,CCATAGACAT,1.14
8,CCAAAAGC,1.12
9,TACAGATTAC,1.22
10,TGTCTTCTTA,0.958
11,AAAACGTTGG,1.03
12,CGGCTGCCAG,0.965
13,TCTCATGAGA,1
14,TTCCCCTTTT,0.968
15,ACAGTAGGCA,1.02
16,TTCTGCCGAC,1.06
17,GAGTCCCGCG,1.08
18,TAGTGCCAGC,1.02
19,CAACGGGTAC,1.54
